Test results taken from PubChem BioAssay AID1625 (Sanford-Burnham Center for Chemical Genomics, 2009).
The list shows a part of the results. Shown are side measurements of this screen, not its main read-out; they come without a call. Most of these compounds were active or inconclusive in the main read-out, so they are no random draw.

Assay: insulin promoter activators in MIN6 cells, imaging, high-content screening, mouse beta cells (AID 1625);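 also: total cells summed across four imaged fields per well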
Settings: MIN6 insulin promoter-GFP reporter, measured here: cytotoxicity, nuclei count, at 5 µM
`N#C/C(=C/c1ccc(N2CCCCC2)o1)C(=O)Nc1ccc(Cl)cc1` gave a cell count of 1600 cells. In the case of `CCCN1C(=O)/C(=C/c2c(N3CCNC(=O)C3CC(=O)OC)nc3c(C)cccn3c2=O)SC1=S` (stereo not drawn), the cell count was 1290 cells. Molecule `CC[n+]1c(/C=C2\C=C(C)CC(C)(C)C2)sc2ccccc21` has a cell count of 260 cells. With `CCOc1ccc(/C=N/OCC(=O)NC(c2ccccc2)c2ccccc2)cc1` the cell count was 380 cells. `COCCn1c(SCC(=O)N2CCc3ccccc32)nc2c(c1=O)SC(C)C2` (stereo not drawn) gave a cell count of 465 cells. `O=[N+]([O-])c1ccc(N/N=C/c2c[nH]c3ccccc23)cc1` showed a cell count of 1200 cells. For `CCN(CC)S(=O)(=O)c1cc(NC(=O)Cn2ncc(Cl)c(Cl)c2=O)ccc1C`, the cell count was 335 cells. In the case of `COc1cc2cc(C)c3nnc(SCC(=O)Nc4cc(C)on4)n3c2cc1OC`, the cell count was 1130 cells. `CCN(CC)c1ccc2cc(-c3nnc(-c4ccncc4)o3)c(=O)oc2c1` gave a cell count of 1300 cells. `COc1cccc(NC(=O)N2CCN(c3nnnn3-c3ccccc3)CC2)c1` gave a cell count of 1200 cells. Work on `N#Cc1c(C(F)(F)F)cc(-c2ccccc2)nc1SCc1nc(N)nc(N2CCOCC2)n1` yielded a cell count of 1280 cells. In the case of `CC(=O)c1c(C)n([O-])c2cc(F)c(F)cc2[n+]1=O`, the cell count was 478 cells. `CCCN(CCC)c1ccc(/C=C/c2ccc3cc(OCC)ccc3n2)cc1` showed a cell count of 943 cells. For `CCN(CC)c1ccc2cc(-c3nnc(-c4ccccc4)o3)c(=O)oc2c1`, the cell count was 1050 cells. `COc1cccc(CNCCc2c[nH]c3ccccc23)c1OCc1ccccc1F` gave a cell count of 327 cells. `CN(C)CCn1c2ccccc2c2nc3ccc([N+](=O)[O-])cc3cc21` gave a cell count of 486 cells. Work on `O=c1[nH]c(/C=C/c2ccccc2OC(F)F)nc2c1cnn2-c1ccccc1` yielded a cell count of 1150 cells. For `CC(=O)Nc1ccccc1OCC(=O)c1cc(C)n(Cc2cccs2)c1C`, the cell count was 338 cells. For `COc1ccc(C(=O)/C=C/C(=O)N(CC(=O)NC2CCCCC2)Cc2ccccc2)c(O)c1`, the cell count was 384 cells. Work on `Oc1ccccc1N=Nc1ccccc1O` yielded a cell count of 497 cells. In the case of `COc1ccc(OCC(=O)Nc2ccc(S(=O)(=O)Nc3cc(C)nc(C)n3)cc2)cc1`, the cell count was 779 cells. `CCn1c(/C=C/N(C)c2ccccc2)[n+](CC)c2ccc(Cl)cc21` showed a cell count of 390 cells. In the case of `N#Cc1ccc(-c2ccc(Cl)cc2)nc1SCC(=O)c1cccc(Cl)c1`, the cell count was 826 cells. Work on `Cc1cnc(C(=O)Nc2cccc3cccnc23)cn1` yielded a cell count of 444 cells. Work on `CCOCCn1c(CN2CCC(Cc3ccccc3)CC2)nc2c1c(=O)n(C)c(=O)n2C` yielded a cell count of 413 cells. With `N#C/C(=C/c1ccc(-c2cc(C(=O)O)cc(C(=O)O)c2)o1)c1nc2ccccc2s1` the cell count was 1120 cells. For `CCS(=O)(=O)N1Cc2ccccc2CC1C(=O)OCC(=O)Nc1ccc(C)cc1` (stereo not drawn), the cell count was 1410 cells. In the case of `CNc1ccc(Br)cc(C(=O)/C=C/c2cc(OC)ccc2OC)c1=O`, the cell count was 378 cells. For `Nc1cccc2c1C(=O)N(C(=O)c1cccc(S(=O)(=O)N3CCCC3)c1)C2=O`, the cell count was 875 cells. `O=C1C=C(Nc2ccc(O)cc2)CC(c2ccco2)C1` (stereo not drawn) showed a cell count of 1040 cells. For `Cn1nc(C(C)(C)C)cc1C(=O)NCc1ccc(N2CCCC2=O)cc1`, the cell count was 405 cells. With `COc1ccc(-n2c(-c3ccc(Br)cc3)c[n+]3c2CCC3)cc1` the cell count was 337 cells. In the case of `CN(C)c1ccc(/C=C/C(O)=C2/C(=O)N(C)C3(C)CC2c2ccccc2O3)cc1` (stereo not drawn), the cell count was 815 cells. With `CC(=O)Nc1ccc(N2CCc3c(C)c(C#N)c4nc5ccccc5n4c32)cc1` the cell count was 1580 cells. `CN(C)C(=O)C12CCC(C)(c3nc4ccccc4nc31)C2(C)C` (stereo not drawn) gave a cell count of 969 cells. `Cc1ccc(C)c(NC(=O)C(C)CC2COCCO2)c1` (stereo not drawn) gave a cell count of 1460 cells. `COc1ccccc1N1CCN(C(=O)CSc2nnc3n2C(C)(C)Cc2ccccc2-3)CC1` gave a cell count of 496 cells. Work on `CCCS(=O)(=O)N1CCC(C(=O)N2CCOCC2)CC1` yielded a cell count of 1500 cells. Work on `CC1=CC(=O)C=C(C)C1=NOc1ccccc1[N+](=O)[O-]` yielded a cell count of 422 cells. For `Cc1c(C(c2ccc([N+](=O)[O-])cc2)c2c(C)n(C)n(-c3ccccc3)c2=O)c(=O)n(-c2ccccc2)n1C`, the cell count was 1360 cells. `CCN(CC)S(=O)(=O)c1ccc(Oc2ccc(S(=O)(=O)N(CC)CC)cc2)cc1` showed a cell count of 279 cells. For `CCCCCCc1cc2cc(C(=O)Nc3ccccc3)c(=O)oc2cc1O`, the cell count was 476 cells. For `O=S(=O)(NCc1ccncc1)c1ccc(Br)s1`, the cell count was 282 cells. With `CC1=C/C(=C\C=C(C#N)C#N)N(C)c2ccccc21` the cell count was 870 cells. `CCN1/C(=C/c2ccc3cc(C)ccc3[n+]2CC)Sc2ccccc21` gave a cell count of 501 cells. In the case of `O=C1/C(=C/c2ccc(N3CCCC3)cc2)NC(=S)N1C1CC1`, the cell count was 962 cells. With `CC[n+]1c(/C=C/C=C/N(C(C)=O)c2ccccc2)sc2cc(OC)ccc21` the cell count was 818 cells. With `CCN(CC)c1ccc(/C=C2\SC(=O)N(C(C)C)C2=O)o1` the cell count was 1090 cells. Molecule `O=C(Nc1cc2c3c(c1)C1CCCC1CN3CC1CCCC21)c1ccc([N+](=O)[O-])cc1` (stereo not drawn) has a cell count of 265 cells. `CCN1C/C(=C/c2ccc(OC)c(O)c2)C(=O)/C(=C/c2ccc(OC)c(O)c2)C1` showed a cell count of 347 cells. With `CCNc1ccc(Br)cc(C(=O)/C=C/c2ccc(Cl)cc2Cl)c1=O` the cell count was 369 cells. Work on `CN(C)CCOCCOc1ccccc1-c1ccccc1` yielded a cell count of 1500 cells. Work on `COc1ccc(C2CC(C(F)(F)F)n3nc(C(=O)NCc4c(C)nn(C)c4C)c(Cl)c3N2)cc1` (stereo not drawn) yielded a cell count of 212 cells. Work on `O=C1NC(=S)S/C1=C\C=C\c1ccc([N+](=O)[O-])o1` yielded a cell count of 325 cells. In the case of `O=C(CCl)Nc1cccc2ncccc12`, the cell count was 897 cells. Molecule `CCN(CC)S(=O)(=O)c1ccc(Cl)c(NC(=O)COC(=O)/C=C/c2cc(OC)c(OC)c(OC)c2)c1` has a cell count of 461 cells. Molecule `CN(C)c1ccc(/C=C2\C(=N)N3C(=NC2=O)Sc2cc(S(C)(=O)=O)ccc23)cc1` has a cell count of 1120 cells. `CCN(CC)CCn1c(=S)[nH]c2ccc(Cl)cc2c1=O` showed a cell count of 1270 cells. For `O=C(NCC(c1cccnc1)N1CCOCC1)NC1CCCCC1` (stereo not drawn), the cell count was 428 cells. `O=C(O)CC12CSc3[nH]c(=O)sc3C1c1ccccc1OC2=O` (stereo not drawn) gave a cell count of 785 cells. `COc1cccc(S(=O)(=O)NCc2ccc(C(=O)Nc3ccc(Cl)c(Cl)c3)cc2)c1` showed a cell count of 839 cells. Molecule `COc1ccc(CCNc2ncnc3sccc23)cc1OC` has a cell count of 433 cells. Work on `CCOc1ccc(CNc2ncnc(N)n2)cc1` yielded a cell count of 314 cells. `O=C(COC(=O)CNC(=O)c1ccccc1)Nc1ccc(Cl)cc1C(F)(F)F` showed a cell count of 336 cells. `CCc1ccc(-c2nn(-c3ccccc3)cc2CSC(=N)N)cc1` showed a cell count of 379 cells. Molecule `Cc1ccc(NS(=O)(=O)c2cc([N+](=O)[O-])ccc2N/N=C/c2sc(N3CCOCC3)nc2-c2ccccc2)c(C)c1` has a cell count of 871 cells. `O=c1cc2oc3cc(O)c(O)cc3c(-c3ccccc3O)c-2cc1O` gave a cell count of 1410 cells. Work on `N#Cc1c(-c2ccco2)cc(C2CC2)nc1SCC(=O)c1ccccc1` yielded a cell count of 931 cells. In the case of `CC(C)CN1C(=O)/C(=C/c2c(N3CCc4ccccc4C3)nc3ccccn3c2=O)SC1=S`, the cell count was 977 cells. `COc1ccc(C[C@H]2CN3C(=NC[C@@H]3Cc3ccccc3)N2C[C@H](C)NC(=O)CCC2CCCCC2)cc1` showed a cell count of 464 cells. Work on `CC(C)OC(=O)C[N+](C)(C)CCN1C(=O)C2C(c3ccccc3)C=CC(c3ccccc3)C2C1=O` (stereo not drawn) yielded a cell count of 323 cells. In the case of `CCCCC1=CC2=CC(=O)C(C)(OC(=O)CC)C(=O)C2=CN1Cc1ccco1` (stereo not drawn), the cell count was 498 cells. Molecule `CN1CC=C2C(C#N)=C(N)C(C#N)(C#N)C(Cc3ccccc3)C2C1` (stereo not drawn) has a cell count of 1870 cells. `CCN1CC=C2C(C#N)=C(N)C(C#N)(C#N)C(CCc3ccccc3)C2C1` (stereo not drawn) showed a cell count of 1320 cells. `O=C(c1cccs1)N(Cc1ccco1)Cc1cc2ccccc2[nH]c1=O` showed a cell count of 490 cells. `COc1ccc2c(c1)[nH]c1c(N3CCN(Cc4ccc5c(c4)OCO5)CC3)ncnc12` gave a cell count of 268 cells. For `O=C(NCc1ccccc1)c1cncc(Br)c1`, the cell count was 340 cells. For `CC(O)CSc1nc2c(c(=O)n(C)c(=O)n2C)n1CCCc1ccccc1` (stereo not drawn), the cell count was 407 cells. `COc1ccc(-c2nc3cc(NC(=O)Cc4ccc(OC)c(OC)c4)ccc3o2)cc1` gave a cell count of 483 cells. Molecule `CCCN1C(=O)/C(=C/c2c(NCCCOC(C)C)nc3c(C)cccn3c2=O)SC1=S` has a cell count of 726 cells. In the case of `N#Cc1c(NC(=S)NC(=O)c2ccccc2)sc2c1CCN(CCc1ccccc1)C2`, the cell count was 920 cells. `Cc1cccc2cc(-c3ccccc3)c(-c3ccccc3)c[n+]12` gave a cell count of 391 cells. With `COc1cc2c(cc1OC)C1=CC(=O)C(=O)N1C(C)(C)C2` the cell count was 1370 cells. In the case of `Cc1nn(Cc2ccc(C(=O)NC(C)(C)C)o2)c(C)c1Br`, the cell count was 363 cells. `N#C/C(=C/c1ccc(N2CCCCC2)o1)C(=O)NCCc1c[nH]c2ccccc12` showed a cell count of 1460 cells. For `COC(=O)c1cnn2c(C(F)(F)F)cc(-c3ccc(F)cc3)nc12`, the cell count was 841 cells. In the case of `COc1ccc(C)cc1NC(=O)CC(NC(C)=O)c1ccccc1` (stereo not drawn), the cell count was 1340 cells. Molecule `Cn1c(=O)c2c(nc(NCc3ccc4c(c3)OCO4)n2Cc2ccccc2F)n(C)c1=O` has a cell count of 434 cells. With `CCN(CC)c1nc(SCCOC(=O)Nc2ccccc2)nc(N(CC)CC)n1` the cell count was 484 cells. `Cc1cccc2sc(NNC(=O)c3ccc4c(c3)OCCO4)nc12` showed a cell count of 1220 cells. `Cc1ccccc1OCC(O)Cn1c(=N)n(Cc2ccccc2)c2ccccc21` (stereo not drawn) showed a cell count of 346 cells. Work on `COC(=O)c1c[nH]n2c(=O)c(Cc3ccc(F)cc3Cl)c(C)nc12` yielded a cell count of 1230 cells. Work on `NC(N)=NC(N)=Nc1ccc(SC(F)(F)F)cc1` yielded a cell count of 297 cells. `Cc1ccc2c(c1)[nH]c1c(N3CCN(Cc4ccc5c(c4)OCO5)CC3)ncnc12` showed a cell count of 262 cells. Work on `CCCCCCn1c2c(c(=N)c3c1CCC3)CCC2` yielded a cell count of 247 cells. Molecule `Nc1nc(-c2ccc(Cl)cc2)c(N=Nc2ccc(S(=O)(=O)N3CCOCC3)cc2)s1` has a cell count of 1260 cells. Molecule `N#C/C(=C\c1ccc(N2CCCCC2)o1)C(=O)Nc1cccc(Br)c1` has a cell count of 1120 cells. `COc1cccc(COc2cc3ccccc3nc2C)c1` showed a cell count of 223 cells. `CCOc1cc(CNCCc2ccc(S(N)(=O)=O)cc2)ccc1OCc1ccc(Cl)cc1` gave a cell count of 294 cells. With `N#CC(C#N)=C1C=CC=CN1/C(=C\c1ccco1)C(=O)c1ccc(Br)cc1` the cell count was 379 cells. In the case of `COc1nc(Nc2nc3ccccc3c(=O)[nH]2)nc2ccc(C)cc12`, the cell count was 344 cells. `O=c1oc2c(CN3CCCCC3)c(O)ccc2cc1-c1nc2ccccc2[nH]1` showed a cell count of 1280 cells. For `CCNc1ccc(Br)cc(C(=O)/C=C/c2c(Cl)cccc2Cl)c1=O`, the cell count was 403 cells.
